Our source for the TGI and GI50 values is PubChem BioAssay (NCI).

Each structure is given as a SMILES string.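 Cells were grown in 96-well plates and exposed to each compound for 48 hours at five concentrations; endpoints were interpolated linearly between bracketing concentrations, or set to the highest concentration if not reached. Here, GI50 denotes the concentration required for 50% inhibition of growth. The concentration for full growth arrest is given as TGI.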 Where only a bound is given, the exact number is not on record here.

The experiment concerns NCI-H322M lung. The experiment in a line: inhibition of tumour cell growth, NCI panel, 48 h.
`COc1ccc2nc3cc([N+](=O)[O-])ccc3c(Nc3ccc(S(=O)(=O)N=C(N)N)cc3)c2c1` displayed a TGI above 100 µM. As to `O=C(NC1CCCCC1)NS(=O)(=O)c1ccc(-n2nc3c(c2-c2ccc(Cl)cc2)Cc2ccccc2-3)cc1`, the GI50 was 14.2 µM and the TGI is 33.2 µM.

Consider `CC1OC(n2c3ccccc3c3c4c(c5c6ccccc6[nH]c5c32)C(=O)N(CCN2CCOCC2)C4=O)CC(O)C1O` (centres undefined), for which the GI50 was 3.73 µM and the TGI came out at 11.8 µM. As to `CSc1ccc(-c2cc(-c3nc4ccccc4[nH]3)nc(N)c2C#N)cc1`, the TGI was above 100 µM. On the same count and under the same terms, under `COC(=O)c1cc(C)ccc1C1CN=NC12Cc1cccc(C)c1C2=O` (centres undefined) stands above 100 µM; under `COC(=O)C1=C(CS(=O)c2ccc([N+](=O)[O-])cc2[N+](=O)[O-])ON(C)C1c1ccccc1` (centres undefined), above 100 µM. On the same count and under the same terms, the result for `CC(=O)c1ccc(NC(=O)C(=O)C(C(=O)c2ccc(Cl)c(Cl)c2)C2OC(=O)c3ccccc32)cc1` (centres undefined) reads above 100 µM. On the same count and under the same terms, the result for `C/C(=N\Nc1nc2ccccc2s1)c1cnccn1` reads above 100 µM. Consider `COc1cccc(Cn2c(-c3nonc3NC(C)=O)nc3ccccc32)c1`, for which the GI50 was 5.74 µM and the TGI is above 100 µM. With `CN(C)C1=NC2=S(SC(Nc3ccccc3)=N2)S1` (centres undefined), the TGI is above 100 µM. Still for that read-out and setting: under `O=C1OC(c2ccccc2)=N/C1=C\c1cc(Cl)ccc1Cl` stands above 100 µM.

Take `CNCCCNC1(c2cc3ccccc3s2)CCCCC1`: the TGI turned out to be 20.5 µM.

The compound `CCOC(=O)C(C(=O)OCC)=C1N[C@H](C(=O)OCC)CS1` returned a TGI above 100 µM. In the case of `COc1ccc(NC(=O)CC(=O)N2N=C(N(CCC#N)c3cccc(C)c3)CC2c2ccccc2)cc1` (centres undefined), the TGI was above 100 µM. On the same count and under the same terms, under `COC(=O)C(Cc1ccccc1)NC(=O)Cn1ccnc1[N+](=O)[O-]` (centres undefined) stands above 100 µM; under `OCC1OC(n2cnc3c2NC=NC[C@H]3O)CC1O` (some centres undefined), above 500 µM; under `COC(=O)C1(Cc2cccc(C)c2)Cc2c(C)cccc2C1=O` (centres undefined), above 100 µM.

Compound `C/C(=N/c1[nH]c(=O)cc2c1C(=O)CC2)N(C)C` yielded a TGI above 200 µM. Compound `Cc1c2cc[n+](C)cc2c(C)c2c1[nH]c1ccc(Cl)cc12` displayed a TGI of 17.7 µM. The same measure, in the same setting: the result for `NCCCNCCSSC/C=C\CSSCCNCCCN` reads above 100 µM; that for `Cc1ccc(C(=O)C#Cc2c[nH]c(=O)[nH]c2=O)cc1`, 28.9 µM. On the same count and under the same terms, the result for `Clc1ccc(C2=C(c3ccccc3)C(c3ccc(Cl)cc3)N3C(=N[C@H]4CCCC[C@@H]43)N2)cc1` (some centres undefined) reads 24.1 µM; that for `CCOC(=O)N[C@@H]1C2CC(=O)C(O2)[C@@H]1OC` (some centres undefined), above 100 µM; that for `Cn1c(=O)n2c(-c3ccccc3)c(-c3ccccc3)n2c1=O`, above 100 µM. Regarding `CC1(C)CCCCCCC2CC2CCCCCC(C)(C)C1=O` (centres undefined), the TGI is above 100 µM. Compound `CCOC(=O)NC(=O)c1cn(CCCOC(=O)NCCCCCCNC(=O)OCCCn2cc(C(=O)NC(=O)OCC)c(=O)[nH]c2=O)c(=O)[nH]c1=O` had a TGI above 100 µM. In the case of `CCC12CC(c3ccccc3)C(C(=O)N1)C(=O)N2` (centres undefined), the TGI is above 100 µM. Same read-out and setting: under `O=Nc1sc(=N\O)/c(=N/O)sc1NO` stands above 100 µM; under `COc1cc(Nc2nc3cc(C(F)(F)F)ccc3nc2-c2ccccc2)cc(OC)c1OC`, above 100 µM. For the compound `COc1cc(C2CC(c3ccccc3)=NN2C(C)=O)cc(OC)c1OC` (centres undefined), the GI50 was 12.2 µM and the TGI is above 100 µM.

Take `Cc1ccc(-c2nc(N)c(C#N)c3c2CCOc2c-3ccc3ccccc23)cc1`: the GI50 was 0.812 µM and the TGI was 30.4 µM. In the case of `C=C(C)[C@H]1C[C@@H]2O[C@@](O)(/C(C)=C\C(=O)/C=C(/C)C[C@H]3OC(=O)[C@@]24O[C@H]34)[C@@H]1O`, the TGI is above 100 µM.

In the case of `COc1ccc(-c2cc(-c3cc(C)ccc3O)[nH]c(=O)n2)cc1`, the TGI was above 100 µM. Still for that read-out and setting: under `O=c1c2cc(-c3ccccc3)cnc2sn1-c1ccc(Oc2ccccc2)cc1` stands above 100 µM. Same read-out and setting: under `CN(C)C(=S)N/N=C(\C(=N/NC(=S)N(C)C)c1ccccn1)c1ccccn1` stands 19.8 µM. As for `COc1ccc(-c2nn(-c3cccc(NC(=O)c4cccc(C(F)(F)F)c4)c3)cc2-c2ccncc2)cc1Cl`, the GI50 was 6.64 µM and the TGI is above 100 µM. Regarding `C=C(C)[C@@H]1CCC2=C[C@H](OC2=O)[C@@]2(C)C[C@@H]2C(=O)/C=C(/C)C(=O)[C@H]1OC(C)=O`, the TGI is above 100 µM. In turn, `CCCCCCCCCCCCCCCCCC(=O)OCC(C[As](=O)(O)O)OC(=O)CCCCCCCCCCCCCCCCC` (centres undefined) displayed a TGI above 100 µM.

In turn, `C[C@@H](CO)C1=CC(C#C[Si](C)(C)C)N(C(=O)Oc2ccccc2)c2ccccc21` (some centres undefined) returned a TGI of 57.5 µM. The same measure, in the same setting: the result for `CC(C)NC(=O)OCc1c(COC(=O)NC(C)C)c(-c2ccc(Cl)c(Cl)c2)n2c1CCC2` reads 72.8 µM.

Take `O=C1CCC(N2Cc3c(C#CCCCNC(=O)c4cc5c(o4)C(=O)c4ccccc4C5=O)cccc3C2=O)C(=O)N1` (centres undefined): the GI50 is 2.7 µM and the TGI was 7.67 µM. The like results for `CC1(C)N=C(N)N=C(N)N1c1cccc(CCCCOc2ccccc2)c1` were, in that order, 0.228 µM and above 100 µM. `c1ccc2sc(C3(N4CCC5(CC4)OCCO5)CCCCC3)cc2c1` had a TGI above 100 µM. Same read-out and setting: the result for `CC1=CC(=O)[C@@H](O)[C@]2(C)[C@H]3[C@@]4(O)OC[C@@]35[C@@H](C[C@@H]12)OC(=O)C(OC(=O)CC1=CCCC1)[C@H]5[C@@H](C)[C@H]4O` (some centres undefined) reads 7.83 µM; that for `COC(=O)C1=C(c2ccc3c(c2)OCO3)OC(c2ccc3c(c2)OCO3)C1` (centres undefined), above 100 µM. As to `O=C(NCCNc1nccc(-c2c(-c3cccc(O)c3)nc3sccn23)n1)Nc1cccc(C(F)(F)F)c1`, the GI50 is 6.13 µM and the TGI was found to be 26 µM. Compound `COc1ccc2oc(=O)c(-c3nc4ccccc4o3)cc2c1` came in with a TGI above 100 µM.

`CNS(=O)(=O)c1ccc2[nH]c(O)c(C3=Nc4ccccc4C3=O)c2c1` registered a TGI above 100 µM. Same read-out and setting: under `COCCN(CCOC)C(=O)COc1c2cc(C(C)(C)C)cc1Cc1cc(C(C)(C)C)cc(c1OCC(=O)N(CCOC)CCOC)Cc1cc(C(C)(C)C)cc(c1OCC(=O)N(CCOC)CCOC)Cc1cc(C(C)(C)C)cc(c1OCC(=O)N(CCOC)CCOC)Cc1cc(C(C)(C)C)cc(c1OCC(=O)N(CCOC)CCOC)C2` stands 12.4 µM; under `CCCC(=O)NC(C(=O)OCC)(N1CCOCC1)C(F)(F)F` (centres undefined), above 100 µM.

`Cc1ccc2c(c1)C(C1Cc3cccc(C)c3C1=O)OC2=O` (centres undefined) had a TGI above 100 µM. For `C=Cc1cc(OC)c2c(c1)c(=O)oc1c2cc(OC)c2c(O)ccc(C3OC(C)C(O)C(C)(O)C3O)c21` (centres undefined), the GI50 is 0.001 µM. The compound `CC(C)n1c(=O)[nH]n(-c2ccccc2)c1=O` gave a TGI above 100 µM. The same measure, in the same setting: the result for `CC1OC(OC2C(CO)OC(O[C@H]3CC[C@@]4(C)C(=CC[C@H]5[C@@H]6C[C@@H]7O[C@](O)(CC[C@H](C)COC8OC(CO)C(O)C(O)C8O)[C@@H](C)[C@@H]7[C@@]6(C)CC[C@@H]54)C3)C(OC3OC(C)C(O)C(O)C3O)C2O)C(O)C(O)C1O` (some centres undefined) reads 16.2 µM; that for `CCCNC(=O)Cn1c(C)cc2ccccc21`, above 100 µM.

As for `O=C(CN1C(=O)S/C(=C\C(Cl)=C\c2ccccc2)C1=O)NCCc1ccc(O)cc1`, the GI50 is 3.53 µM and the TGI is 14.5 µM.

As to `COC1OC(COS(=O)(=O)c2ccc(C)cc2)C(O)C(OS(=O)(=O)c2ccc(C)cc2)C1OS(=O)(=O)c1ccc(C)cc1` (centres undefined), the TGI is above 100 µM. Still for that read-out and setting: under `Cc1ccc2ccc3ccc(C)nc3c2n1` stands above 100 µM; under `O=C(c1nc2ccc(Cl)cc2[nH]c1=O)C(O)c1ccc2c(c1)OCO2` (centres undefined), above 100 µM; under `CC(C)(O)CO/N=C1\C(c2c(O)[nH]c3ccccc23)=Nc2ccccc21`, above 37.1 µM. Compound `N#CCCOCN(CO)c1nc(N(CO)COCCC#N)nc(N(CO)COCCC#N)n1` showed a TGI above 100 µM. Compound `C=C1CC2CC(=O)C(O)C(C1)C2` (centres undefined) had a TGI above 100 µM.

`C[C@]12CC[C@H]3[C@@H](CCC4=CC(=O)CC[C@@]43C)[C@@H]1CC[C@@H]2C(=O)Nc1ccc([N+](=O)[O-])c(C(F)(F)F)c1` came in with a TGI of 38.2 µM. Same read-out and setting: the result for `O=C1C(=c2cc3c(c4ccccc24)=NC24CCCCC2C(c2ccccc2)C=C(c2ccccc2)N34)C(=O)c2ccccc21` (centres undefined) reads above 100 µM. `COc1cc(-n2cnc(-c3ccc(Cl)cc3)c2)cc(OC)c1OC`: the GI50 was 72 µM and the TGI is above 100 µM. The compound `Cc1coc2c1C(=O)C(=O)c1c-2ccc2c1CCCC2(C)C` returned a TGI above 36.8 µM. Take `Cc1cc(=O)oc2c(OS(C)(=O)=O)c(OS(C)(=O)=O)ccc12`: the TGI was above 100 µM.

`COc1cc(C2S/C(=C/c3ccccc3)C(=O)N2c2cc(Cl)c(Cl)cc2Cl)cc(OC)c1OC` (centres undefined) returned a TGI above 100 µM.

Consider `CC(=O)OC1CC2C(C)(C)C(=O)C=C[C@]2(C)C2CCC3(C)C(c4ccoc4)[C@@H](O)[C@H]4O[C@]43[C@]12C` (some centres undefined), for which the TGI came out at 61.8 µM. Consider `CCN(CC)CCCC(Cc1ccccc1)Nc1c2ccc(Cl)cc2nc2ccc(OC)cc12` (centres undefined), for which the GI50 was 2.01 µM and the TGI worked out at 5.77 µM. In the same order, the values of `COc1ccc2cc(Cn3cc[n+](Cc4ccc5ccccc5c4)c3)ccc2c1` are 5.75 µM and 19.7 µM. Turning to `CC1OC(OC2C(CO)OC(O[C@H]3CC[C@@]4(C)C(=CC[C@H]5[C@@H]6C[C@@H]7O[C@](O)(CC[C@H](CO)COC8OC(CO)C(O)C(O)C8O)[C@@H](C)[C@@H]7[C@@]6(C)CC[C@@H]54)C3)C(OC3OC(C)C(O)C(O)C3O)C2O)C(O)C(O)C1O` (some centres undefined), the TGI is above 100 µM.

Regarding `COc1ccc(C(=O)CC(=O)C(=O)Nc2ccc(C)c(C)c2)cc1`, the TGI is above 100 µM. For `C=C(C)[C@@H]1CC[C@]2(C(=O)O)CC[C@]3(C)[C@H](CC[C@@H]4[C@@]5(C)C/C(=C/c6ccc(OC)cc6)C(=O)C(C)(C)[C@@H]5CC[C@]43C)[C@@H]12`, the GI50 was 2.41 µM and the TGI was 8.45 µM. `O=C1C2=Cc3ccccc3OC2(O)Oc2ccc(O)cc21` (centres undefined) gave a TGI above 100 µM. On the same count and under the same terms, under `CCC1c2[nH]c3ccccc3c2C[C@H]2C(=O)N3CCC[C@H]3C(=O)N12` (some centres undefined) stands above 100 µM.

As to `CCOC(=O)C(=O)Nc1c(C)cccc1C(C)C`, the TGI was above 100 µM. In the case of `CC[C@@H]1CC[C@@H]2[C@H](CC[C@]3(C)[C@@H](O)CC[C@@H]23)[C@H]1CO`, the TGI is above 100 µM.

In the case of `COc1ccc(CCN2CCC(Nc3nc4ccccc4n3Cc3ccc(F)cc3)CC2)cc1`, the GI50 was 1.9 µM and the TGI was found to be 4.01 µM.
